The whole screen tested about 340,000 compounds, of which about 12,000 (3.5%) were called active. Inconclusive results, whose numbers are uncertain, are shown with a selection of clear calls. Calls follow the shape of the dose curve; as a rule, active = well fitted inhibition curve with a large enough effect; inconclusive = small, poorly fitted or top-dose-only effect, or another doubt; inactive = no such curve, though single readings can be large or run the other way. No potency is given beside an inconclusive call; the fits are too rough.
Experiment: qHTS Assay for Inhibitors of Hepatitis C Virus (HCV)
Details: Huh7.5.1 HCVcc-Cre (HCVcc is cell-culture hepatitis C virus) infection, luciferase reporter, 44 h; series mostly up to 41.8 µM
Method in brief: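 Seed cells (1,000/well) for 4 h; treat with compound and infect with HCVcc-Cre, moi about 0.5. Incubate 44 h, then detect luciferase activity.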
Potency is read from the fitted curve at half-maximal effect; tags tell the direction and shape of the fitted curve.

Compound	Potency
COC(=O)c1cc(COC(=O)c2cccnc2SC)oc1C	inactive
Cc1ccc(-n2c(SCC(=O)NCCC3=CCCCC3)nc3n[nH]c(C)c3c2=N)cc1Cl	inconclusive [inhibitor, partial curve]
Cn1c(=O)n(C)c2cc(NC(=O)c3cc4ccccc4o3)ccc21	inconclusive [inhibitor, partial curve]
COC(=O)c1ccc(CNC(=O)C(NC(=O)c2ccco2)C(C)C)cc1 (stereo not given)	inactive
Cc1cccc(NC(=O)CSc2nc3ccccc3c3nc(CCc4c(C)n[nH]c4C)nn23)c1	active: 25.1 µM
Cc1ccc2ccc3cccc4ccc1c2c34	inconclusive [inhibitor, single point]
CC(C)CC(=O)N1CCN(S(=O)(=O)c2ccc3ccccc3c2)CC1	inconclusive [inhibitor, single point]
COc1ccc(SC[C@H](Cc2ccccc2)N2CCN(CCc3ccccc3)CCC2=O)cc1	inconclusive [inhibitor, partial curve, poor fit]
COC(=O)c1sc(C(C)(C)C)cc1CSc1ccccc1	inactive
NS(=O)(=O)c1ccc(CNC(=O)c2ccc(Cl)c(S(=O)(=O)NCc3ccccc3)c2)cc1	inconclusive [inhibitor, single point]
COc1ccc(-c2nnc(SCc3nc4ccccc4c(=O)[nH]3)o2)cc1	inactive
Cc1ccccc1C(=O)Nc1cccc(N)c1	inconclusive [inhibitor, single point]
ClC(/C=N/n1cnnc1)=C/c1ccccc1	inconclusive [inhibitor, partial curve]
NC(=O)c1cc([N+](=O)[O-])c(Cl)cc1NCc1cccnc1	inconclusive [inhibitor, single point]
Nc1ccc(N=Nc2ccc(O)cc2)c(N)n1	inconclusive [inhibitor, partial curve, poor fit]
CCCCOc1ccc(C(=O)NCCc2ccccc2)cc1	inactive
COc1cc(-c2noc(C)c2C#Cc2ccc(N)cc2)cc(OC)c1OC	active: 2.24 µM
O=C(Nc1nc(COc2ccccc2)cs1)C12CC3CC(CC(C3)C1)C2	inconclusive [inhibitor, single point]
Cc1ccc(C(=O)N2CCN(c3ccccc3Cl)CC2)cc1[N+](=O)[O-]	inconclusive [inhibitor, single point]
Cc1ccc(-c2csc(NC(=O)CSc3ncn(-c4ccccc4)n3)n2)cc1	inconclusive [inhibitor, single point]
O=C(Nc1ccc(Oc2cccnc2)cc1)c1ccccc1F	inconclusive [inhibitor, single point]
CCOCCCn1c(=NC(=O)c2cccnc2)c(C(=O)OCC)cc2c(=O)n3ccccc3nc21	inconclusive [inhibitor, partial curve]
O=C(OCCN1C(=O)c2cccc3c(N4CCOCC4)ccc(c23)C1=O)c1ccc(Cl)cc1Cl	inconclusive [inhibitor, partial curve]
CN(C)c1ccc(C=c2c3ccccc3n3c2c2ccccc2[n+]3C)cc1	active: 8.91 µM

Compound	Potency
COc1cc(/C=N/NC(=O)Cn2nc([N+](=O)[O-])cc2C)cc(Br)c1OCc1ccccc1	inconclusive [inhibitor, single point]
Cc1cccc(NC(=O)CSCC(=O)N2CCN(Cc3ccc4c(c3)OCO4)CC2)c1	inactive
COc1ccc([C@H]2CC(=O)C=C(c3ccc(Cl)c(C(F)(F)F)c3)C2)cc1OC	inconclusive [inhibitor, full curve]
CC(C)CCN(C(=O)Nc1ccc(Cl)cc1)C1CCN(C(C)C)CC1	inconclusive [inhibitor, partial curve]
CN(CC(=O)Nc1cccc(F)c1)C(=O)c1ccc(N2CCCC2)c([N+](=O)[O-])c1	inconclusive [inhibitor, partial curve]
O=c1[nH]cnc2c1sc1nc(C(F)F)cc(-c3ccccc3)c12	inconclusive [inhibitor, single point]
CC(=O)c1sc(Nc2nc(C)cc(C)n2)nc1C	inconclusive [inhibitor, full curve]
CCc1cccc(CC)c1NC(=S)NC(C)c1ccccc1 (stereo not given)	inconclusive [inhibitor, single point]
Cc1cccc(OCC(=O)Nc2cc(S(=O)(=O)N3CCOCC3)ccc2N2CCCC2)c1C	inconclusive [inhibitor, single point]
CCO[C@@H]1c2c(ccc3ccc(=O)oc23)OC(C)(C)[C@@H]1O	inactive
CCOC(=O)c1nc2cc3n(c(C)c-2c1C)C(C)C(C)=C3C (stereo not given)	inconclusive [inhibitor, single point]
COc1ccc(OCCOc2ccc(/C=C3\C(=N)N4N=C(C)SC4=NC3=O)cc2)cc1	inactive
Cc1ccc(C(=O)N2N=C(c3ccc(Br)cc3)CC2c2ccccc2O)cc1 (stereo not given)	inconclusive [inhibitor, single point]
COc1cc(N2CCCC2)c(OC)cc1/C=C(/C#N)c1cccc(Br)c1	inconclusive [inhibitor, single point]
CC(C)(C)c1ccc(C(=O)/C(C#N)=C/c2cccs2)cc1	inactive
COc1ccc(C(=O)c2cc3cccc(OC)c3o2)cc1	inconclusive [inhibitor, partial curve]
CCN(C(=O)COC(=O)CCc1ccccc1OC)c1c(N)n(Cc2ccccc2)c(=O)[nH]c1=O	inconclusive [inhibitor, single point]
Cc1cc(NC(=O)Cn2nc(C)c([N+](=O)[O-])c2C)no1	inactive
O=C(O)c1ccc(N2C(=O)c3cccnc3C2=O)cc1	inactive
O=C(Nc1ccc2c(c1)OCO2)c1cnc2n(c1=O)CCS2	inactive
COc1ccccc1NS(=O)(=O)c1cccc(NC(=O)c2[nH]c(C)c(C(C)=O)c2C)c1	active: 12.6 µM
O=C(Nc1ccc(Cl)cc1)Nc1ccc(Oc2cccnc2)nc1	inconclusive [inhibitor, single point]
CCOC(=O)c1ccc(Nc2sc(C(=O)c3cccc([N+](=O)[O-])c3)c(N)c2C#N)cc1	inconclusive [inhibitor, partial curve]
CN(C)CCNC(=O)C1(O)c2cc(Br)ccc2NC(=O)N1c1ccc(Cl)cc1 (stereo not given)	inactive

Compound	Potency
CC(C)(C)c1cc(C(=O)NNC(=O)c2ccc(Cl)cc2)no1	inactive
O=C(Nc1ccc(F)cc1)Nc1ccc(N2CCOCC2)c2nonc12	inconclusive [inhibitor, single point]
CC(NC(=O)c1cc(-c2ccc3c(c2)OCO3)nc2ccccc12)C(C)(C)C (stereo not given)	inactive
Cc1ccc(S(=O)(=O)N(C)C)cc1NC(=O)c1cc(C(C)(C)C)nn1Cc1ccccc1	active: 5.62 µM
CSc1ncccc1C(=O)OCC(=O)Nc1nc(C)c(Cl)cc1Cl	inactive
CC1CCN(S(=O)(=O)c2cccc(C(=O)NC3CCCCC3)c2)CC1	inconclusive [inhibitor, single point]
CCOc1ccc(C(=O)N2CCCC(c3nc(-c4ccc(C)o4)no3)C2)cc1 (stereo not given)	inconclusive [inhibitor, partial curve]
O=C(CCN1C(=O)c2cccc3cccc(c23)C1=O)N1CCN(Cc2ccc3c(c2)OCO3)CC1	inconclusive [inhibitor, single point]
Cc1ccc(N(CC(=O)NCc2ccco2)C(=O)CNS(=O)(=O)c2ccc(F)cc2)c(C)c1	inactive
O=C(CN1CCCCCC1)Nc1cccc(NC(=O)CN2CCCCCC2)c1	inconclusive [inhibitor, partial curve]
Cc1ccc(-c2noc(CCC(=O)N(C)c3ccccc3C)n2)cc1	inconclusive [inhibitor, single point]
CN(Cc1ccccc1)CC(O)COc1ccc(CNCCCOc2cccnc2)cc1 (stereo not given)	inconclusive [inhibitor, partial curve]
CC(Sc1ncccn1)C(=O)Nc1ccc2c(c1)OCCO2 (stereo not given)	inconclusive [inhibitor, single point]
Cc1ccnc(SCC(=O)Nc2oc(-c3ccccc3)c(-c3ccccc3)c2C#N)n1	inconclusive [inhibitor, partial curve]
COCC(C)n1c(C)cc(C(=O)COC(=O)c2oc3ccccc3c2C)c1C (stereo not given)	inconclusive [inhibitor, single point]
C/C(=N\NC(=O)c1ccc(Cn2cc(Br)cn2)o1)c1cccc(NC(=O)C(C)(C)C)c1	inactive
CSc1nsc(SCC(=O)Nc2cccc(NC(C)=O)c2)n1	inconclusive [inhibitor, single point]
CN1CCN(C(CNC(=O)Nc2ccc(Cl)cc2)c2ccc(F)cc2)CC1 (stereo not given)	inconclusive [inhibitor, single point]
Cc1nc2ccc(S(=O)(=O)Nc3ccc(-c4nc5cccnc5s4)cc3)cc2s1	inactive
Cc1ccc(NC(=S)N(C)C(c2ccccc2)c2ccccc2)cc1C	inconclusive [inhibitor, single point]
CCc1c(O)c(-c2ccccc2)c(=O)n(-c2ccccn2)c1-c1ccccc1	inactive
CCC1=Nc2cc(C(=O)NCCCOC(C)C)ccc2Sc2ccccc21	inconclusive [inhibitor, single point]

— PubChem BioAssay AID651820 (National Center for Advancing Translational Sciences (NCATS), 2012)
